From PubChem BioAssay AID1865 (National Center for Advancing Translational Sciences (NCATS), 2009)
Screen size: about 280,000 compounds; about 540 (0.19%) were called active. Inconclusive means that the source gave no clear call. Such entries were picked first, then a sample of the others. Calls come from the whole dose curve; as a rule, active = well fitted activation curve with a large enough effect; inconclusive = small, poorly fitted or top-dose-only effect; inactive = flat fitted curve, though single readings scatter. Potencies of inconclusive entries are doubtful fits and often do not repeat.

Assay: Quantitative High-Throughput Screen for Regulators of Epigenetic Control; note: nearly all actives have a fitted effect of over 60% in size; for GFP activation: % of control where 0% means no effect
Conditions: murine LDR cells, GFP reporter derepression, 30 h; GFP activation: at 53.9 µM (top of the series)
Description: NIH Molecular Libraries Screening Centers Network [MLPCN] NIH Chemical Genomics Center [NCGC] MLSCN Grant: 1 X01 MH079860-01 Assay Provider: Elisabeth D. Martinez, University of Texas SW Medical Center NCGC Assay Overview: The Locus Derepression (LDR) assay detects the derepression or induction of a GFP reporter that is stably integrated in a genomic region of murine cells that is presumably silenced. Transcription of the GFP reporter is controlled by a CMV promoter, which normally is constitutively active. However, this cell line, termed LDR, was selected for lack of constitutive production of GFP. GFP production can be induced by incubating the cells with histone deacetylase or DNA methyltransferase inhibitors (Martinez et al., 2006). Compounds that derepress or induce this reporter locus are identified by enumerating GFP positive cells using a laser-scanning microplate cytometer (Auld et al., 2006). This assay was screened against the MLSMR earlier (AID 597; (Johnson et al., 2008) and has been rescreened here against the expanded collection.
NCGC Assay Protocol Summary: Three hundred LDR cells in 5 uL per well were dispensed into black, clear-bottom 1536-well plates. Twenty-three nL compound was transferred to the assay plate and cells were incubated 30 hours at 37 C. Medium was removed, cells were washed two times with PBS, and GFP-positive cells were enumerated as fluorescent objects between the sizes of 20 to 120 um width and depth using an Acumen Explorer. References Auld, DS, Johnson, RL, Zhang, YQ, Veith, H, Jadhav, A, Yasgar, A, Simeonov, A, Zheng, W, Martinez, ED, Westwick, JK, Austin, CP, Inglese, J (2006). Fluorescent protein-based cellular assays analyzed by laser-scanning microplate cytometry in 1536-well plate format. Methods Enzymol 414: 566-89. Johnson, RL, Huang, W, Jadhav, A, Austin, CP, Inglese, J, Martinez, ED (2008). A quantitative high-throughput screen identifies potential epigenetic modulators of gene expression. Anal Biochem 375: 237-48. Martinez, ED, Dull, AB, Beutler, JA, Hager, GL (2006). High-content fluorescence-based screening for epigenetic modulators. Methods Enzymol 414: 21-36.
Potency is the fitted concentration of half-maximal effect; tags give direction and shape of the fitted curve.

SMILES | Potency | GFP activation
COc1cc([C@@H]2c3cc4c(cc3[C@@H](O)[C@H]3COC(=O)[C@H]23)OCO4)cc(OC)c1O[Si](C)(C)C(C)(C)C | inconclusive: 20 µM [activator, single point] | 
CCc1ccc(NC(=O)CSc2nc3c(sc4ccccc43)c(=O)n2CCN(CC)CC)cc1 | inconclusive: 20 µM [activator, single point] | 
O=C(Nc1ccc2oc(-c3ccccc3)nc2c1)c1ccc2c(c1)OCCO2 |  | inactive: -0.056%
Cc1ccc2cccc(OCCOCCOc3ccccc3Br)c2n1 |  | inactive: -4.46%
CSc1cccc(NC(=O)CC(c2ccc(F)cc2)N2Cc3ccccc3C2=O)c1 (stereo not drawn) | inconclusive: 8.91 µM [activator, partial curve] | 
COc1ccc(-c2cc(C(=O)NCCc3ccccc3)c3c(-c4ccccc4)[nH]nc3n2)cc1 |  | inactive: -1.83%
Cc1cc(O)cc(O)c1C(=O)Cc1cscn1 |  | inactive: 0.741%
Oc1ccc(CN2CCN(c3ccccc3)CC2)c2cccnc12 | active: 3.55 µM | 
O=C(NCc1ccc(F)cc1)Nc1cccc([N+](=O)[O-])c1 | inconclusive: 28.2 µM [activator, single point] | 
Cc1cc(NC(=O)c2ccco2)cc(-c2nc3cc(Cl)ccc3o2)c1O | inconclusive: 31.6 µM [activator, single point] | 
CCOC(=O)N1CCc2c(sc(NC(=O)c3ccc(Cl)s3)c2C(N)=O)C1 | inconclusive: 31.6 µM [activator, single point] | 
CCc1ccc(-c2cc(C(F)(F)F)n3nc(C(=O)Nc4cnn(Cc5ccc(C)cc5)c4)cc3n2)s1 | inconclusive: 3.98 µM [activator, single point] | 
CCOc1ccc(-c2[nH]ncc2Oc2ccccc2OC)c(O)c1 |  | inactive: 5.05%
COC(=O)c1cnn(-c2ccccc2)c1/C=N/NC(=S)Nc1ccccc1 | inconclusive: 31.6 µM [activator, single point] | 
CCCCCOc1ccc(NC(=O)CSc2cccc3cccnc23)cc1 | inconclusive: 5.62 µM [activator, single point] | 
CC(C)(C)NC(=O)C(c1ccncc1)N(C(=O)Cn1nnc(-c2ccc(F)cc2)n1)c1ccccc1 (stereo not drawn) |  | inactive: -1.14%
CCCc1[nH]nc2c1C(c1cn[nH]c1-c1ccc(F)cc1)C(C#N)=C(N)O2 (stereo not drawn) | inconclusive: 35.5 µM [activator, single point] | 
O=C(Nc1cc(Sc2ccccn2)cc([N+](=O)[O-])c1)c1cccc(Cl)c1 |  | inactive: 2.11%
COCCCn1c(=O)/c(=C\c2ccccc2OC(F)F)s/c1=C(/C#N)C(N)=O | inconclusive: 31.6 µM [activator, single point] | 
COc1cc(/C=C2\CC/C(=C\c3cc(OC)c(OC)c(OC)c3)C2=O)cc(OC)c1OC | inconclusive: 35.5 µM [activator, single point] | 
COCCNC(=S)N/N=C(\C)c1ccc(-n2ccnc2)cc1 | inconclusive: 35.5 µM [activator, single point] | 
CCCCC1C(=O)N(c2ccccc2)N(c2ccc(O)cc2)C1=O (stereo not drawn) | inconclusive: 5.62 µM [activator, single point] | 
CCc1ccccc1NC(=O)CSc1nc2ccccc2nc1Cc1cccc(OC)c1 | inconclusive: 35.5 µM [activator, single point] | 
CC(=O)Nc1ccc2cc3ccc(NC(C)=O)cc3nc2c1 | inconclusive: 31.6 µM [activator, single point] | 
Cc1cc(N)n2ncc(-c3ccc(F)cc3)c2n1 |  | inactive: -0.0701%

SMILES | Potency | GFP activation
COc1nc(-c2ccccc2)ccc1-c1noc(COc2ccccc2)n1 |  | inactive: -0.709%
CCOC(=O)C(C)Sc1ncnc2c1nnn2-c1ccc(F)cc1 (stereo not drawn) | inconclusive: 17.8 µM [activator, single point] | 
CCc1nnc(NC(=O)CSc2nc(-c3ccccc3)cc(-c3ccc(OC)cc3)c2C#N)s1 | inconclusive: 6.31 µM [activator, single point] | 
CSc1nc(C)cc(Nc2cccc(C(=O)O)c2)n1 |  | inactive: -3.23%
Cc1ccn2c(-c3csc(NCc4ccccc4)n3)c(C)nc2c1 |  | inactive: 1.16%
NS(=O)(=O)c1ccc(CCNC(=O)CCn2c(=O)c3cccn3c3cccnc32)cc1 | inconclusive: 20 µM [activator, single point] | 
O=C(Nc1cccc(F)c1)c1ccc(-c2ccccc2Cl)o1 |  | inactive: -2.31%
Cc1ccc(-c2nc(SCC(=O)Nc3cc(C)on3)c3c(=O)n(C)c(=O)n(C)c3n2)cc1 | inconclusive: 17.8 µM [activator, single point] | 
COc1ccc(C(=O)C[n+]2ccc3c(c2)nc(-c2cc(OC)c(OC)cc2OC)n3C)cc1 |  | inactive: 0%
N#C/C(=C\c1ccc([N+](=O)[O-])o1)C(=O)Nc1ccc(F)cc1 | inconclusive: 25.1 µM [activator, single point] | 
CC(C)(C)c1ccc(OCc2cc(=O)n3c4c(sc3n2)CCCC4)cc1 |  | inactive: 5.06%
CC(=O)Nc1ccc(S(=O)(=O)Nc2ccc(C(=O)NCC(=O)O)cc2)cc1 |  | inactive: 0.0852%
O=C(Nc1ccc2nc(SCC(=O)N3CCc4ccccc43)sc2c1)c1ccc(Cl)cc1 | inconclusive: 15.8 µM [activator, single point] | 
O=C(CSc1nnc(-c2ccccc2)c(-c2ccccc2)n1)Nc1ncc(Cl)cc1Cl | inconclusive: 31.6 µM [activator, single point] | 
Cc1ccc2nc(NCCc3ccc(Cl)cc3)c3nncn3c2c1 | inconclusive: 25.1 µM [activator, single point] | 
O=C(CCn1c(=O)c2ccccc2n(Cc2ccc(Cl)cc2)c1=O)NCc1ccc2c(c1)OCO2 | inconclusive: 35.5 µM [activator, single point] | 
N#Cc1cccc(CS(=O)(=O)c2ccccc2)c1 |  | inactive: -0.303%
CC(=O)c1sc2nc(-c3cccs3)cc(C(F)(F)F)c2c1N | active: 15.8 µM | 
O=C(c1cccn2c(=O)c3ccccc3nc12)N1CCN(Cc2ccc3c(c2)OCO3)CC1 |  | inactive: -3.52%
CCOC(=O)c1nn(-c2ccccc2F)c2nc(Nc3ccccc3)cc(=O)n12 | inconclusive: 12.6 µM [activator, single point] | 
N#CCSc1n[nH]c2nc3c(c(=O)n12)C1(CCCC1)Cc1ccccc1-3 |  | inactive: -5.8%
CCc1ccc2oc(C(=O)Nc3nc(-c4ccccc4)ns3)c(C)c2c1 |  | inactive: -3.93%
COCCCNc1nc2nonc2nc1N1CCC(C(C)N2CCOCC2)CC1 (stereo not drawn) | inconclusive: 14.1 µM [activator, single point] | 
COc1ccc2[nH]c(=O)c(CNc3ccccc3)cc2c1 |  | inactive: -1.03%
O=C(O)c1ccnc(C(=O)O)c1 |  | inactive: 0.758%

SMILES | Potency | GFP activation
O=C(N/N=C/C1C(c2ccccc2)C1(Cl)Cl)c1cccc(Cl)c1 (stereo not drawn) | inconclusive: 31.6 µM [activator, single point] | 
COc1ccc(/C=C2\SC(=N)N(c3nccs3)C2=O)cc1OC | inconclusive: 31.6 µM [activator, single point] | 
COc1ccc(NC(=O)CSc2nc(-c3ccc(C)cc3)cc(C(F)(F)F)c2C#N)cc1 | inconclusive: 35.5 µM [activator, single point] | 
Fc1ccc(-c2cnn3c(-c4cccs4)ccnc23)cc1 | inconclusive: 31.6 µM [activator, single point] | 
COCC(C)Nc1ncnc2c1cnn2-c1ccc(Cl)cc1 (stereo not drawn) |  | inactive: 0%
S=C(Nc1ccc(Br)cc1)NC1CCCC1 |  | inactive: 0.917%
O=C(N/N=C/C(Br)=C/c1ccccc1)c1ccncc1 | inconclusive: 4.47 µM [activator, single point] | 
COC(=O)c1cc(=O)n(CCc2ccc(OC)c(OC)c2)c(=Nc2ccc(F)c(Cl)c2)s1 | inconclusive: 14.1 µM [activator, single point] | 
CN(CC(=O)NCCc1ccccc1)S(=O)(=O)c1cccc2nsnc12 | inconclusive: 35.5 µM [activator, single point] | 
CCOC(=O)c1c(NC(=O)c2ccc(S(=O)(=O)N(C)C)cc2)sc2c1CCN(C)C2 | inconclusive: 22.4 µM [activator, single point] | 
COC(=O)Cc1ccc(NC(=S)N2CCN(c3ccc(F)cc3)CC2)cc1 | inconclusive: 6.31 µM [activator, single point] | 
CC1CCC2(CC1)NC(=O)N(Cc1nnc(-c3cccs3)o1)C2=O (stereo not drawn) | inconclusive: 5.62 µM [activator, single point] | 
O=C(Nc1cccc(C(=O)N2CCN(c3ccc(F)cc3)CC2)c1)c1nsc2ccccc12 |  | inactive: -0.782%
Oc1c(CN2CCN(c3ccccc3)CC2)cc(Br)c2cccnc12 | inconclusive: 22.4 µM [activator, single point] | 
CCN(CC)c1ccc(/C=N/NC(=O)Cc2cccs2)c(O)c1 |  | inactive: 0%
O=C(NCc1ccc2c(c1)OCO2)C1CCC(=O)N1C1CCCCC1 (stereo not drawn) | inconclusive: 0.708 µM [activator, full curve] | 
CC1CC(Nc2ccccc2N)=CC(=O)O1 (stereo not drawn) |  | inactive: -1.75%
Cc1ccc(S(=O)(=O)c2cc3c(=O)n4ccccc4nc3n(Cc3ccco3)c2=N)cc1C | inconclusive: 28.2 µM [activator, single point] | 
Cc1cc(C)n(-c2ncnc3sc(C)c(C)c23)n1 |  | inactive: -3.45%
Cc1nc(NC2CCCCC2)c2nc(-c3ccccc3)n(CCCN3CCOCC3)c2n1 |  | inactive: -1.01%
COc1cccc(N2CCN(C(=O)Cn3cnc4onc(-c5ccc(F)cc5)c4c3=O)CC2)c1 |  | inactive: 0%
Cc1ccc2c(c1)c(=O)c(C(=O)c1ccncc1)cn2CC(=O)Nc1ccc(C(C)C)cc1 | inconclusive: 17.8 µM [activator, single point] | 
CS(=O)(=O)N1CCN(c2ccc(NC(=O)c3ccc([N+](=O)[O-])o3)cc2)CC1 | inconclusive: 2.82 µM [activator, full curve] | 
